# Measured values from PubChem BioAssay AID686979 (National Center for Advancing Translational Sciences (NCATS), 2013).
# Several values for one entry are separate records, joined by “and”; a condition that tells them apart may be missing. Equal entries are not always repeated. The campaign covered roughly 420,000 compounds. About 50,000 (12%) were called active. The inconclusive results got no clear call from the source; some entries with a clear call stand among them for comparison. Calls come from the whole dose curve; as a rule, active = well fitted inhibition curve with a large enough effect; inconclusive = small, poorly fitted or top-dose-only effect; inactive = flat fitted curve, though single readings scatter. Where the call is inconclusive, the potency comes from a doubtful curve fit.
# Assay: qHTS for Inhibitors of human tyrosyl-DNA phosphodiesterase 1 (TDP1): qHTS in cells in presence of CPT; note: nearly all actives have a fitted effect of over 55% in size
# Conditions: chicken DT40 Tdp1-/-;hTDP1 cells + 20 nM CPT, ATP luminescence, 48 h; activity change, negative = growth inhibition: at 46.2 µM (top of the series)
# Summary of the method: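 Chicken DT40 Tdp1-/- cells complemented with human TDP1, 400 cells/well, exposed to compounds plus 20 nM camptothecin for at least 48 h at 37 C; viability read as ATP content by CellTiter-Glo luminescence.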
# % is set by controls: 0 for no effect and ±100 for the full control effect; potency is the fitted concentration of half-maximal effect; tags give direction and shape of the fitted curve.
SMILES,Potency,"activity change, negative = growth inhibition"
CC1(C(=O)NCc2cccs2)CCN1C(=O)Cc1ccc(Cl)cc1Cl (stereo unspecified),"inconclusive: 29.1 µM [inhibitor, single point]",–
CC1(C(=O)NCc2cccc3ccccc23)CCN1C(=O)C1(c2ccccc2)CC1 (stereo unspecified),"inconclusive: 10.3 µM [inhibitor, partial curve]",–
CC(C)C1C(=O)Nc2ccc(S(=O)(=O)NCCc3ccc(Cl)cc3)cc21 (stereo unspecified),"inconclusive: 18.4 µM [inhibitor, partial curve]",–
O=C(CSc1ccc(-c2cccs2)nn1)N1CCCCC1,–,inactive: -12%
COc1cc2nc(Cl)nc(NC3CCN(Cc4ccccc4)CC3)c2cc1OC,active: 7.08 µM,–
COc1ccc(Cl)cc1-c1cc(C(=O)NCc2cc(C(F)(F)F)cc(C(F)(F)F)c2)[nH]n1,"inconclusive: 23.1 µM [inhibitor, single point]",–
COc1ccc(Cl)cc1NC(=O)CN1C(=O)C(C)(C)c2cc(S(=O)(=O)N3CCCCC3)ccc21,"inconclusive: 29.1 µM [inhibitor, single point]",–
Cc1ccc(S(=O)(=O)N2CCC(=O)N(C(COCc3ccccc3)Cc3ccccc3)CC2)cc1 (stereo unspecified),"inconclusive: 16.4 µM [inhibitor, single point]",–
O=C(N=C1SC2CS(=O)(=O)CC2N1c1ccc(Cl)c(Cl)c1)C1CCCO1 (stereo unspecified),–,inactive: 2.46%
CSc1cccc(N2CC(C(=O)NCCC3=CCCCC3)CC2=O)c1 (stereo unspecified),–,inconclusive: -31.7% [inhibitor]
Cc1cc(C)nc(SCc2nnc(SCc3ccccc3Cl)o2)n1,"inconclusive: 16.4 µM [inhibitor, partial curve]",–
O=C(NC1CCCCC1)N1CCN(c2ccc(Cl)cc2)CC1,"inconclusive: 20.6 µM [inhibitor, single point]",–
CN(CC(=O)Nc1ccccc1Br)C(=O)CN1CCN(Cc2cccc(Cl)c2)CC1,"inconclusive: 25.9 µM [inhibitor, single point]",–
CN(C)CCCCCCNc1nccc(N2CCN(C)CC2)n1,active: 10 µM,–
O=C(O)c1ccccc1C(=O)NCCCn1ccnc1,–,inactive: 3.11%
Cc1cccc(-n2ncc(C(=O)N3CCN(c4ccc(C)cc4C)CC3)c2C2CCN(C(=O)OC(C)(C)C)CC2)c1,"inconclusive: 10.3 µM [inhibitor, partial curve]",–
COc1ccc(N=c2oc3cc(O)ccc3cc2C(=O)NCC2CCCO2)c(OC)c1 (stereo unspecified),–,inactive: -26.9%
Cc1c(C)n(Cc2ccccc2)c2ncnc(Cl)c12,active: 14.6 µM,–
COc1ccc(S(=O)(=O)N(Cc2cccs2)C2CCCC2)cc1,active: 18.4 µM,–
COC(=O)[C@@]12C[C@@H](CC(=O)N3CCCC3)C(=O)N(Cc3cccc4ccccc34)C1=CCC(C)(C)C2,"inconclusive: 29.1 µM [inhibitor, single point]",–
Cc1cc(-c2ccc(NS(=O)(=O)c3ccccc3)c(C)c2)ccc1NS(=O)(=O)c1ccccc1,active: 13 µM,–
CCN1c2ccccc2-c2nc(SCC(=O)NCc3ccc(Cl)cc3)ncc2S1(=O)=O,"inconclusive: 20.6 µM [inhibitor, single point]",–
O=C(CSc1nnc(NC(=O)C2CC2)s1)Nc1ccccc1,–,inactive: -16.9%
Cc1ccsc1CN(C(=O)c1oc2ccc(Br)cc2c1C)C1CCS(=O)(=O)C1 (stereo unspecified),active: 9.2 µM,–

SMILES,Potency,"activity change, negative = growth inhibition"
Cn1c(=O)c2c(nc(NCCOc3ccc(C(C)(C)C)cc3)n2C)n(C)c1=O,active: 1.46 µM,–
CCn1cc(C(=O)N2CCc3ccccc32)c(=O)c2cc(S(=O)(=O)N(C)C3CCCCC3)ccc21,–,inactive: -18.7%
O=C1[C@@H]2Cc3c([nH]c4ccccc34)C(c3ccc(Cl)cc3)N2C(=O)CN1CCO (stereo partly specified),"inconclusive: 14.6 µM [inhibitor, partial curve]",–
Cc1c(C)n(Cc2ccc(F)cc2)c2ccc(C(=O)NCc3ccco3)cc12,"inconclusive: 14.6 µM [inhibitor, partial curve]",–
c1ccc(CCn2c(SCc3ccccc3)nnc2-c2ccncc2)cc1,–,inactive: -10.9%
CCC(=O)N1CCCC(C)(C(=O)Nc2ccc3scnc3c2)C1 (stereo unspecified),–,inconclusive: -31.1% [inhibitor]
O=[N+]([O-])c1cccc(OCCCN2CCC(Cc3ccccc3)CC2)c1,"inconclusive: 10.3 µM [inhibitor, single point]",–
O=C(CC1C(=O)N(c2ccccc2)C(=O)N1CCc1cccs1)Nc1ccc(F)cc1 (stereo unspecified),–,inactive: -4.18%
Cn1c2ccccc2c(=O)c2ccc(F)cc21,"inconclusive: 32.6 µM [inhibitor, single point]",inconclusive: -30.1% [inhibitor]
CCOc1cc(N2CCOCC2)c(OCC)cc1NC(=O)c1cnccn1,active: 20.6 µM,–
Cc1ccc(/C=C\c2nccc3c2[nH]c2ccccc23)cc1,"inconclusive: 29.1 µM [inhibitor, single point] and inconclusive: 17.8 µM [inhibitor, single point]",–
CCOC(=O)COn1c(-c2cccc(Cl)c2)nc2ccc([N+](=O)[O-])cc21,–,inactive: -7.05%
CSc1ncc(C(=O)N2CCN(c3cccc(Cl)c3)CC2)c(C)n1,"inconclusive: 20.6 µM [inhibitor, partial curve]",–
Cc1cc(C)nc(NC(=O)c2c(F)c(F)c(F)c(C(=O)Nc3cc(C)cc(C)n3)c2F)c1,"inconclusive: 25.9 µM [inhibitor, single point]",–
C=CCNC(=S)N1CCN(c2ncc(C(F)(F)F)cc2Cl)CC1,"inconclusive: 29.1 µM [inhibitor, single point]",–
Cn1c(=O)c2c(ncn2CC(O)CNc2cccc(Cl)c2)n(C)c1=O (stereo unspecified),"inconclusive: 16.4 µM [inhibitor, single point]",–
CCCCN1C(=O)C(CC(=O)NCc2ccco2)CC(C(=O)N2CCCCCC2)=C1C (stereo unspecified),–,inactive: 1.79%
O=C(CSc1ncc(-c2ccccc2)[nH]1)Nc1ccc(Cl)cc1,active: 20.6 µM,–
Cc1ccc(CNc2nc(-c3ccco3)nn2S(=O)(=O)c2ccc3ccccc3c2)cc1,–,inactive: -5.14%
CC(=O)NCCn1c(SCc2ccccc2C)nc2ccccc2c1=O,"inconclusive: 29.1 µM [inhibitor, single point]",–
Cc1ccc(-c2n[nH]c(=O)c3ccccc23)cc1S(=O)(=O)NC(C)(C)C,–,inconclusive: -36.5% [inhibitor]
Cc1ccc(C)c(S(=O)(=O)N2CCCC2CNC(=O)C(=O)NCc2ccccc2C)c1 (stereo unspecified),"inconclusive: 16.4 µM [inhibitor, single point]",–
O=C(NCCN1CCN(c2cccc(Cl)c2)CC1)Nc1ccccc1C(F)(F)F,"inconclusive: 18.4 µM [inhibitor, single point]",–
O=C1S/C(=C\c2ccc(N3CCOCC3)o2)C(=O)N1Cc1ccc(F)cc1,"inconclusive: 29.1 µM [inhibitor, single point]",–

SMILES,Potency,"activity change, negative = growth inhibition"
CCOC(=O)C1CCN(C(=O)c2ccc3c(c2)OCO3)CC1,–,inactive: -8.33%
CC(=O)Nc1ccc(NC(=O)C2CC(=O)Nc3ncnn32)cc1 (stereo unspecified),–,inactive: -4.82%
Cc1ccc(S(=O)(=O)Nc2cc3c(cc2NCc2ccccc2)n(C)c(=O)n3C)cc1,active: 9.2 µM,–
CC(C)Cc1ccc(CN2CCCC(NC(=O)CCCN3CCCC3=O)C2)cc1 (stereo unspecified),"inconclusive: 20.6 µM [inhibitor, single point]",–
O=C(Cn1c(=O)oc2ccccc21)NCCc1ccccc1,–,inactive: 1.93%
COc1cc(NC(=O)C2CCN(c3cnccn3)CC2)cc(OC)c1OC,–,inactive: -16.5%
Cc1ccccc1C(=O)N1c2ccccc2OCC1C(C)(C)C (stereo unspecified),"inconclusive: 29.1 µM [inhibitor, single point]",–
COc1ccc2c(c1)CC(C(=O)NCCCN1CCN(c3cccc(Cl)c3)CC1)CO2 (stereo unspecified),active: 18.4 µM,–
COc1ccc(NC(=O)c2ccc(NCCCN3CCOCC3)c([N+](=O)[O-])c2)cc1,active: 20.6 µM,–
COc1cc2c(cc1O)[C@@H]1Cc3cc(OC)c(OC)cc3C(C2)N1C,"inconclusive: 13 µM [inhibitor, partial curve]",–
O=C(N/N=C/c1sc(N2CCOCC2)nc1-c1ccccc1)c1cccc(S(=O)(=O)N2CCCC2)c1,active: 2.59 µM,–
NS(=O)(=O)c1ccc(CCNC(=O)c2cc3ccccc3oc2=O)cc1,–,inactive: 3.31%
c1ccc(COc2cccc(-c3cc4nc(NCc5ccc6c(c5)OCO6)ccn4n3)c2)cc1,"inconclusive: 29.1 µM [inhibitor, single point]",–
CCOC(=O)c1sc2ccccc2c1S(=O)(=O)N1CCN(c2cccc(C)c2)C(C)C1 (stereo unspecified),"inconclusive: 29.1 µM [inhibitor, single point]",–
COc1cc2c3c(c1)-c1c(sn(-c4cc(OC)ccc4OC)c1=S)C(C)(C)N3C(=O)C2=O,–,inactive: -9.75%
CCOC(=O)N1CCN(C(=O)CSCC(=O)N=c2sc3ccccc3n2C)CC1,active: 16.4 µM,–
O=C(Cn1c(=O)nc(-c2ccccc2)c2cc(Cl)ccc21)N1CCN(c2ccccc2F)CC1,"inconclusive: 25.9 µM [inhibitor, single point]",–
Cc1c(C(=O)OCC(=O)c2ccc3c(c2)OCCO3)oc2ccccc12,"inconclusive: 29.1 µM [inhibitor, single point]",–
CCOC(=O)COc1c(C=O)cc(Br)cc1OC,"inconclusive: 23.1 µM [inhibitor, single point]",–
O=C(Nc1nc(-c2cccs2)cs1)C1=COCCO1,"inconclusive: 25.9 µM [inhibitor, single point]",–
COc1ccc(Cl)cc1NC(=O)CSc1nc2[nH]ncc2c(=O)[nH]1,"inconclusive: 29.1 µM [inhibitor, single point]",–
O=S(=O)(NCC1(N2CCOCC2)CCCCC1)c1ccccc1Cl,"inconclusive: 32.6 µM [inhibitor, single point]",–
